“And” between values parts separate entries of the source, which are not always exact repeats. Identical values can stand only once. Out of some 280,000 compounds screened, about 1,100 (0.39%) were called active. This list was built around the results that the source calls inconclusive (neither active nor inactive); the mix of calls is not that of the screen. Calls follow the shape of the dose curve; as a rule, active = well fitted inhibition curve with a large enough effect; inconclusive = small, poorly fitted or top-dose-only effect, or effect the other way; inactive = flat fitted curve, though single readings scatter. No potency is given beside an inconclusive call; the fits are too rough.
Molecular target: Microtubule-associated protein tau (Homo sapiens) (UniProt P10636)
Assay: qHTS for Inhibitors of Tau Fibril Formation, Fluorescence Polarization; also: nearly all actives have a fitted effect of over 55% in size
Settings: K18 P301L tau heparin fibrillization, Alexa594 FP, 6 h; series mostly up to 57.7 µM
Method in brief: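 K18 P301L tau (15 uM unlabeled/0.24 uM Alexa 594-labeled, final) + compound + heparin 20 uM final; 100 mM NaOAc pH 7; 6 hr 37 C; ThT 30 uM final added, 1 hr RT; FP ex 555/em 632 nm.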
Potency is read from the fitted curve at half-maximal effect; tags tell the direction and shape of the fitted curve.

Sequence of UniProt P10636 (P10636 whole entry, looked up): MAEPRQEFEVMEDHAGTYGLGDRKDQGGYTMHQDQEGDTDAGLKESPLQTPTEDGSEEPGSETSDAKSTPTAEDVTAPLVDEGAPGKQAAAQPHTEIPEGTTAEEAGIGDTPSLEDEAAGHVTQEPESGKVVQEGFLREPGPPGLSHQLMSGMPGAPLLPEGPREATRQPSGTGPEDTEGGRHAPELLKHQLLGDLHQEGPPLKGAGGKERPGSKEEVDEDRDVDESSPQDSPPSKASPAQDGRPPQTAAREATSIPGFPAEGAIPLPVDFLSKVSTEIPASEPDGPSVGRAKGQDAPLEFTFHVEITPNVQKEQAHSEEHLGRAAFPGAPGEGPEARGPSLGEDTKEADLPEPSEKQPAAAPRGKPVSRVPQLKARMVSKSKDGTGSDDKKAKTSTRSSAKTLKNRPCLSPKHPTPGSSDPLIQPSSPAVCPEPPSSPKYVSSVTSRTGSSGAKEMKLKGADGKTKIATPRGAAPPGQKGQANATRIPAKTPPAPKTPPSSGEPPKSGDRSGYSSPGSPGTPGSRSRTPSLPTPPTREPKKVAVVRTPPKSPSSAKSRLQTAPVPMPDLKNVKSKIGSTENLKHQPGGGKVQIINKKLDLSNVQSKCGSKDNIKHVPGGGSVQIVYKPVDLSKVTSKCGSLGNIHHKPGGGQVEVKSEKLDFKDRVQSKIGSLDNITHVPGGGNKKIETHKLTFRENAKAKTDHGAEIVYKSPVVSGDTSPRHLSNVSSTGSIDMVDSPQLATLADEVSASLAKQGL

Structure (SMILES) | Potency
O=C(Nc1ccc(C(F)(F)F)cc1)c1cc(-c2cccnc2)nc2ccc(Br)cc12 | inconclusive [inhibitor, partial curve]
c1ccc(CNc2nc(-c3cccs3)nc3ccccc23)cc1 | inconclusive [inhibitor, partial curve]
COc1ccccc1-c1cc(-c2ccc(C)cc2)nc(SCc2nnc(-c3ccccc3)o2)c1C#N | inconclusive [inhibitor, single point]
COc1ccc(N2CCN(C(=O)c3ccc(NS(=O)(=O)c4cccs4)cc3)CC2)cc1 | inconclusive [activator, single point]
COc1ccc(NC(=O)Cn2c(=O)n(Cc3nc(-c4ccccc4)no3)c(=O)c3ccccc32)cc1Cl | inconclusive [inhibitor, partial curve]
NC(CO)C(=O)NNCc1ccc(O)c(O)c1O (configuration not stated) | active: 12.6 µM and active: 8.91 µM and active: 3.16 µM
CCN1CCN(C(=O)c2ccc3c(c2)S(=O)(=O)c2ccccc2C3=O)CC1 | inactive
COc1ccc(C(C)C(=O)c2ccc(O)cc2O)cc1 (configuration not stated) | inconclusive [inhibitor, single point]
COc1ccc(NC(=O)C2CCCN(S(=O)(=O)c3ccc(Br)s3)C2)cc1 (configuration not stated) | inconclusive [inhibitor, single point]
CCCc1cc(C(=O)N/N=C/c2ccc(CC)s2)c2ccccc2n1 | inactive
CCOC(=O)Cc1nnc2c(Nc3ccc(Cl)cc3)nc3nonc3n12 | inconclusive [inhibitor, single point]
Brc1cccc(Cn2c(-c3cncs3)nc3ccccc32)c1 | inconclusive [inhibitor, single point]
N#Cc1cc2sc3nnc(-c4ccncc4)n3c2cc1C#N | inconclusive [inhibitor, partial curve]
Cc1cccc(N2CCN(CCNC(=O)Nc3ccc(Cl)cc3)CC2)c1C | inconclusive [inhibitor, partial curve]
O=C(NCCn1ccc2ccccc21)c1ccc(Cl)cc1 | inactive
CC(C)Cc1ccc(C(C)C(=O)OCC(=O)c2c[nH]c3ccccc23)cc1 (configuration not stated) | active: 22.4 µM
CCOc1cc(/C=N/Nc2nc3ccccc3[nH]2)cc(Br)c1OCC(=O)N(C)C | inconclusive [activator, full curve, poor fit]
C[C@]12CCC3c4ccc(O)cc4CCC3C1CCC2OC(=O)CCC1CCCC1 (some centres not stated) | inconclusive [inhibitor, partial curve]
CCc1cccc(-n2c(=O)c3cccnc3n2CC(=O)Nc2ccc(F)c(C)c2)c1 | inconclusive [inhibitor, partial curve]
COc1ccccc1C(=O)Nc1ccccc1OCc1cc(=O)n2ccccc2n1 | inactive
COc1ccc(-c2nnc(SC(C(=O)c3c[nH]c4ccccc34)c3ccccc3)n2N)cc1OC (configuration not stated) | inconclusive [inhibitor, partial curve, poor fit]

Structure (SMILES) | Potency
NS(=O)(=O)c1ccc(Nc2nc(-c3cccc([N+](=O)[O-])c3)cs2)cc1 | inactive
CCC(C(=O)OCC(=O)Nc1ccc(OC)cc1OC)c1ccccc1 (configuration not stated) | inactive
O=C(NCCCNc1ccc(C(F)(F)F)cc1[N+](=O)[O-])c1ccc(Cl)cc1 | inconclusive [inhibitor, partial curve, poor fit]
C#CCn1c(=NC(=O)c2sc3ccccc3c2Cl)sc2cc(S(N)(=O)=O)ccc21 | inconclusive [inhibitor, single point]
Cc1ccc(C2Nc3ccccc3-c3nc4ccccc4n32)o1 (configuration not stated) | inconclusive [inhibitor, single point]
O=C(NCc1ccc2c(c1)CCO2)Nc1cccc(C(F)(F)F)c1 | inconclusive [inhibitor, single point]
CC(C)c1nc(SCC(=O)N2CCc3ccccc32)n[nH]1 | inactive
COc1ccc(/C(C)=N/NC(=O)CNC(=O)Cc2ccccc2)c(OC)c1 | inactive
Cc1sc(NC(=O)c2cc(-c3ccccc3)nc3ccccc23)c(C(N)=O)c1C | inconclusive [inhibitor, partial curve]
O=C(Nc1ccc2oc(=O)ccc2c1)c1ccccc1[N+](=O)[O-] | inconclusive [activator, single point]
O=C(c1cnn(-c2ccc(F)cc2)c1-n1cccc1)N1CCN(c2ccc(F)cc2)CC1 | inconclusive [activator, partial curve]
COc1ccc(CC(=O)Nc2sc3c(c2C(=O)Nc2ccccc2)CCCCC3)cc1 | inconclusive [inhibitor, full curve, poor fit]
Cc1ccc(S(=O)(=O)Nc2cccc(-c3cn4cccc(C)c4n3)c2)c(C)c1 | inconclusive [inhibitor, full curve, poor fit]
Cc1ccc(NC2Sc3ccccc3NC2=O)cc1Cl (configuration not stated) | inconclusive [inhibitor, single point]
CCOc1cc(C(=O)NCCc2sc(-c3ccc(F)cc3)nc2C)cc(OCC)c1OCC | inactive
N=C(N)SCP(=O)(c1ccccc1)c1ccccc1 | inconclusive [inhibitor, partial curve, poor fit]
CO/N=C\[C@@H](NS(=O)(=O)c1ccc(C)cc1)[C@H](C)/C=C\CC(=O)OC | inconclusive [inhibitor, partial curve, poor fit]
O=C(COC(=O)c1ccccc1Cc1ccccc1)Nc1ccc(SC(F)F)cc1 | active: 25.1 µM
CCOC(=O)c1c(NC(=O)C2CC2)sc(C)c1CC | inconclusive [inhibitor, single point]
Brc1ccc(-c2nnc(-c3ccccc3Br)o2)cc1 | inactive
Cc1ccccc1NC(=O)Cn1cc(C(=O)c2cccs2)c2ccccc21 | inconclusive [inhibitor, partial curve]
